According to PubChem BioAssay AID488969 (Vanderbilt High Throughput Screening Facility, 2010):
Over roughly 110,000 compounds, “z-score” has its median near -0.1; the highest 2% begin near 2. Some of the results follow.

target: Metabotropic glutamate receptor 8 (Rattus norvegicus) (UniProt P70579); test: rat mGluR8 modulators via GIRK flux, primary screen, cell-based, thallium flux, HTS (AID 488969); conditions: HEK293 rat mGluR8, GIRK (G protein-gated inwardly rectifying potassium channel) thallium flux, FluoZin2; at 10 µM; stronger effect = higher value; submaximal glutamate (EC20) added with thallium
Chain of UniProt P70579 (P70579 whole entry, looked up): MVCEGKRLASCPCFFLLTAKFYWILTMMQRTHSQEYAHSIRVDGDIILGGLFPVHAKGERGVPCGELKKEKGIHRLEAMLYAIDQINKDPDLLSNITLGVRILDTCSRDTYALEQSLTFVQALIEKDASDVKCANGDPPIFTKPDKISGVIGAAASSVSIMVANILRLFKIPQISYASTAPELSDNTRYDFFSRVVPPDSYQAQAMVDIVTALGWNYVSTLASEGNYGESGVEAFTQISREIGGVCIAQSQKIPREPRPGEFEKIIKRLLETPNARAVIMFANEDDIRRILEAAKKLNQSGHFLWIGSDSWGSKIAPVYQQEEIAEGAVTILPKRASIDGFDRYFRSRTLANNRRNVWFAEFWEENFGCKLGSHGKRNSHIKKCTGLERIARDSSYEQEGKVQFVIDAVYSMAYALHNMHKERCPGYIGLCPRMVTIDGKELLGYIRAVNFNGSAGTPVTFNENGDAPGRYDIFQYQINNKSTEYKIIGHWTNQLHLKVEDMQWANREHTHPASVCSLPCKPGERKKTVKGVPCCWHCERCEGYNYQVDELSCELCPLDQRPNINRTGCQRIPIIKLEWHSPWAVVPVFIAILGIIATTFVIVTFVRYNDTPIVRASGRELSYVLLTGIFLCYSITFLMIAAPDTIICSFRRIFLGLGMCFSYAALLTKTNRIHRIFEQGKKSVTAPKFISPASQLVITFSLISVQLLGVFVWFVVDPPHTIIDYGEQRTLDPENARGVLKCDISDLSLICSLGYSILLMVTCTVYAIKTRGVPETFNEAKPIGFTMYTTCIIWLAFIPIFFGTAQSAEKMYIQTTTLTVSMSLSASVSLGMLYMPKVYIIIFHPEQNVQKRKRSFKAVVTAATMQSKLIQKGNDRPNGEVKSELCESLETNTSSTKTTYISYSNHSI

Point of comparison: `CN(C)c1nc2n(c(=S)n1)CCS2`, z-score 0.264. Against it:
- CC1CCN(CC(=O)N2CC(=O)Nc3ccccc32)CC1 — lower, -0.177
- N#CCCn1c(SCC(=O)N2CCN(S(=O)(=O)c3ccccc3)CC2)nc2ccccc21 — lower, -1.08
- CC(=O)Nc1c(O)nc(SCC(=O)Nc2sc3c(c2C#N)CCCCCC3)[nH]c1=O — lower, -0.257
- O=S(=O)(Cc1ccccc1)N1CCN(Cc2ccccc2)CC1 — lower, -0.122
- CC1CCCC(C)N1CCNC(=O)C1CCN(S(=O)(=O)N2CCCCC2)CC1 (configuration not stated) — lower, -0.337
- CC(C)(C)OC(=O)N/N=C/c1cc(N=Nc2ccccc2)ccc1O — lower, -0.136
- CCCNC(=O)N[C@@H](Cc1ccccc1)C(=O)OC — lower, 0.0758
- CCCC(=O)NC(Nc1ccc(S(=O)(=O)Nc2cc(C)on2)cc1)(C(F)(F)F)C(F)(F)F — lower, -0.0511
- Cc1ccccc1NC(=S)NC1CC2CCC(C1)N2Cc1ccco1 (configuration not stated) — lower, 0.0979
- COCCn1nnnc1C(c1ccc2ncccc2c1)N1CCN(c2ccccc2F)CC1 (configuration not stated) — lower, -0.355
- COc1cc(-c2nc3ccccn3c2/N=C/c2ccccc2)ccc1O — lower, -0.248
- COc1ccc(OCC(O)CNc2ccc(Br)cc2)cc1 (configuration not stated) — lower, -0.364
- O=[N+]([O-])c1ccc(C2CCCC/C2=N/OCc2ccccc2F)c([N+](=O)[O-])c1 (configuration not stated) — higher, 0.27
- COc1ccc(Br)cc1C(=O)Nc1ccc(NC(=O)c2ccco2)cc1 — lower, 0.122
- CC1(C)Cc2c(sc(/N=C/N3CCCCC3)c2C#N)C(C)(C)N1 — higher, 0.519
- Cc1c(C#N)c2ccccc2n1CC(=O)NCc1ccccc1 — lower, -0.11
- COc1ccc(C(=O)NCC(=O)O)cc1 — lower, -0.395
- COc1cc(/C=N/N2CCN(C3c4ccccc4-c4ccccc43)CC2)ccc1O — lower, -0.203
- COc1ccccc1Nc1nc2ccccc2n1C — lower, -0.233
- CC1CCCCC1NCC(=O)Nc1ccccc1-c1ccccc1 (configuration not stated) — higher, 0.416
- CCc1nc(N)c(C#N)c(-c2cccc3ccccc23)c1C — lower, 0.197
- NC(=O)C1CCN(C(=O)OCc2ccccc2)CC1 — lower, -0.192
- Cc1cc2occ(CC(=O)Nc3nccs3)c2cc1C(C)C — lower, -0.304
- CCOc1ccc(N2C(=O)CC(S/C(N)=N/N=C/c3cccs3)C2=O)cc1 (configuration not stated) — lower, 0.12
- Cc1ccc(Sc2ccc(/C=N/O)cc2[N+](=O)[O-])cc1 — lower, -0.7
- Cc1ccc2cc3cc(C(=O)NCCN4CCOCC4)oc3nc2c1 — higher, 0.715
- COc1ccc(C(=O)NCCSCc2ccco2)cc1OC — lower, -0.85
- CCOc1ccc(-c2nnn(CC(=O)c3ccc4c(c3)OCCO4)n2)cc1 — higher, 0.498
- Cc1ccc(S(=O)(=O)n2nc(C)cc2C)cc1 — lower, 0.0429
- COc1cccc(-n2cnc3sc(C)c(C)c3c2=O)c1 — lower, -0.425
- CCC(=O)N1C(C(=O)NCc2ccc(OC)cc2)CSC1c1ccc(OC)cc1 (configuration not stated) — lower, -0.585
